Data reported in PubChem BioAssay AID220 (DTP/NCI, 2004).
Inconclusive results are not listed. A number of entries come with more than one value. This is not the full list of results. The source may hold further records. Values that stand side by side are repeats across runs, samples, wells, individuals or studies. Starred links: 1 amine or outer side, 2 acyl side, 3 side chain; linkers in the order of their positions; H or OH if unused. Positions of bridges follow the written chain, without caps; N, C: chain ends. Non-standard residues stand in square brackets, D forms with d. Residues, ends and D or L forms follow the SMILES beside them. Chains are numbered I, II in the order given. *: point of attachment. Actinocin(9to1) = Cc1c2oc3c(C)ccc(C(=O)[*:1])c3nc-2c(C(=O)[*:2])c(N)c1=O; Trt = c1ccc(C(c2ccccc2)(c2ccccc2)*)cc1; NMeV = CN[CH](C(=O)O)C(C)C; Cbz = O=C(OCc1ccccc1)*; Sar = CNCC(=O)O

Test system: CD8F1 mice, subcutaneous mammary adenocarcinoma, T/C%
Experiment: NCI In Vivo Anticancer Drug Screen. Data for tumor model Mammary Adenocarcinoma CD8F1 (subcutaneous) in CD8F1
Details: higher = larger tumour
Experimental: The antitumor activity of compounds was measured in mice bearing transplantable tumors. Survival or tumor size were measured and the results are expressed as the measurement made in the treated group (T) divided by the measurement made in the vehicle treated control group (C). The tumor model used in this assay is Mammary Adenocarcinoma CD8F1 (subcutaneous) in CD8F1

[1] = endpoint: median tumor weight (est.), dose: 50.0 mg/kg/injection, schedule: Q07DX005 (ip), vehicle: saline
[2] = endpoint: median tumor weight (est.), dose: 400.0 mg/kg/injection, schedule: Q07DX005 (ip), vehicle: saline with Tween-80
[3] = endpoint: median tumor weight (est.), dose: 12.5 mg/kg/injection, schedule: Q07DX005 (ip), vehicle: saline with Tween-80
[4] = endpoint: median tumor weight (est.), dose: 200.0 mg/kg/injection, schedule: Q07DX005 (ip), vehicle: saline with Tween-80
[5] = endpoint: median tumor weight (est.), dose: 50.0 mg/kg/injection, schedule: Q07DX005 (ip), vehicle: saline with Tween-80
[6] = endpoint: median tumor weight (est.), dose: 100.0 mg/kg/injection, schedule: Q07DX005 (ip), vehicle: saline with Tween-80
[7] = endpoint: median tumor weight (est.), dose: 25.0 mg/kg/injection, schedule: Q07DX005 (ip), vehicle: saline
[8] = endpoint: median tumor weight (est.), dose: 12.5 mg/kg/injection, schedule: Q07DX005 (ip), vehicle: Klucel (hydroxypropylcellulose) (HPC)
[9] = endpoint: median tumor weight (est.), dose: 25.0 mg/kg/injection, schedule: Q07DX005 (ip), vehicle: Klucel (hydroxypropylcellulose) (HPC)

Structure (SMILES): CSCS(=O)C[C@H](CO)NC(=O)/C=C/c1c(C)[nH]c(=O)[nH]c1=O (stereo partly drawn)
- T/C (endpoint: median tumor weight (est.), dose: 1.0 mg/kg/injection, schedule: Q07DX005 (ip), vehicle: saline): 11 % of control and 64 % of control
- T/C (endpoint: median tumor weight (est.), dose: 2.0 mg/kg/injection, schedule: Q07DX005 (ip), vehicle: saline): 69 % of control and 101 % of control

Structure (SMILES): O=[N+]([O-])O.[Ga]
- T/C (endpoint: median tumor weight (est.), dose: 50.0 mg/kg/injection, schedule: Q04DX005 (ip), vehicle: saline): 107 % of control and 175 % of control
- T/C [1]: 89 % of control and 184 % of control
- T/C (endpoint: median tumor weight (est.), dose: 100.0 mg/kg/injection, schedule: Q07DX005 (ip), vehicle: saline): 63 % of control and 98 % of control

Structure (SMILES): Nc1nc(F)nc2c1ncn2C1OC(COP(=O)(O)O)C(O)C1O (stereo not drawn)
- T/C [1]: 79 % of control and 105 % of control
- T/C (endpoint: median tumor weight (est.), dose: 200.0 mg/kg/injection, schedule: Q07DX005 (ip), vehicle: saline): 50 % of control and 82 % of control

Structure (SMILES): O=c1[nH]c(=O)n(C2CC(O)C(CO)O2)cc1I (stereo not drawn)
- T/C [2]: 32 % of control and 66 % of control

Structure (SMILES): CCOC(C)C(/C=N/NC(N)=S)=NNC(N)=S (stereo not drawn)
- T/C [3]: 53 % of control and 115 % of control
- T/C [4]: 42 % of control and 69 % of control

Structure (SMILES): O=NN(CCCl)C(=O)NCCCl
- T/C (endpoint: median tumor weight (est.), dose: 1.0 mg/kg/injection, schedule: Q07DX005 (ip), vehicle: saline with Tween-80): 95 % of control and 152 % of control
- T/C (endpoint: median tumor weight (est.), dose: 4.0 mg/kg/injection, schedule: Q07DX005 (ip), vehicle: saline with Tween-80): 58 % of control and 86 % of control

Structure (SMILES): N#Cc1nc(C#N)c(Sc2ccccc2)c(Sc2ccccc2)c1Sc1ccccc1
- T/C [5]: 61 % of control and 112 % of control
- T/C [6]: 114 % of control and 152 % of control
- T/C [4]: 54 % of control and 96 % of control

Structure (SMILES): N=C(N)SCc1c2ccccc2c(CSC(=N)N)c2ccccc12
- T/C (endpoint: median tumor weight (est.), dose: 12.5 mg/kg/injection, schedule: Q07DX005 (ip), vehicle: saline): 100 % of control and 186 % of control
- T/C [7]: 72 % of control and 172 % of control

Structure (SMILES): COC(=O)C(CSC(c1ccccc1)(c1ccccc1)c1ccccc1)NC(=O)C(CC(N)=O)NC(=O)OCc1ccccc1 (stereo not drawn) (Cbz-Asn-Cys(Trt)-OMe; configuration not given here)
- T/C (endpoint: median tumor weight change, dose: 250.0 mg/kg/injection, schedule: Q01DX001 (ip), vehicle: distilled water + Tween-80): 82 % of control and 111 % of control
- T/C (endpoint: median tumor weight change, dose: 1000.0 mg/kg/injection, schedule: Q01DX001 (ip), vehicle: distilled water + Tween-80): 42 % of control and 72 % of control

Structure (SMILES): O=C1c2ccccc2C(=O)c2c(NCCNCCO)ccc(NCCNCCO)c21
- T/C (endpoint: median tumor weight (est.), dose: 8.3 mg/kg/injection, schedule: Q07DX005 (ip), vehicle: Klucel (hydroxypropylcellulose) (HPC)): 79 % of control and 123 % of control
- T/C (endpoint: median tumor weight (est.), dose: 16.6 mg/kg/injection, schedule: Q07DX005 (ip), vehicle: Klucel (hydroxypropylcellulose) (HPC)): 46 % of control, 183 % of control, 999 % of control
- T/C (endpoint: median tumor weight (est.), dose: 31.25 mg/kg/injection, schedule: Q07DX004 (ip), vehicle: Klucel (hydroxypropylcellulose) (HPC)): 4 % of control and 46 % of control
- T/C (endpoint: median tumor weight (est.), dose: 31.25 mg/kg/injection, schedule: Q07DX005 (ip), vehicle: Klucel (hydroxypropylcellulose) (HPC)): 37 % of control, 54 % of control, 88 % of control

Structure (SMILES): Cc1[nH]c(=O)[nH]c(=O)c1N(CCF)CCCl
- T/C (endpoint: median tumor weight change, dose: 25.0 mg/kg/injection, schedule: Q01DX001 (ip), vehicle: Klucel (hydroxypropylcellulose) (HPC)): 50 % of control and 106 % of control

Structure (SMILES): COC(=O)C(Cl)(Cl)N=Nc1c(Cl)cc(Cl)c(C)c1Cl
- T/C [3]: 47 % of control and 213 % of control
- T/C [5]: 100 % of control and 154 % of control
- T/C [2]: 66 % of control and 121 % of control

Structure (SMILES): C/C(=N/NC(N)=S)c1ccc2ccccc2c1
- T/C (endpoint: median tumor weight (est.), dose: 25.0 mg/kg/injection, schedule: Q07DX005 (ip), vehicle: saline with Tween-80): 41 % of control and 67 % of control
- T/C [5]: 8 % of control and 63 % of control
- T/C [6]: 1 % of control and 38 % of control

Structure (SMILES): CC1=CC(=Nc2ccc(N(CCCl)CCCl)cc2)C=C(C)C1=O
- T/C [8]: 44 % of control, 45 % of control, 74 % of control
- T/C [9]: 31 % of control, 44 % of control, 63 % of control

Structure (SMILES): Cc1ccc(S(=O)(=O)N/N=C/C(=O)O)cc1
- T/C (endpoint: median tumor weight (est.), dose: 50.0 mg/kg/injection, schedule: Q07DX005 (ip), vehicle: other): 39 % of control and 76 % of control
- T/C (endpoint: median tumor weight (est.), dose: 100.0 mg/kg/injection, schedule: Q07DX005 (ip), vehicle: other): 28 % of control and 57 % of control

Structure (SMILES): CC1=C(/C=C/C(C)=C/C=C/C(C)=C/C(=O)O)C(C)(C)CCC1
- T/C (endpoint: median tumor weight (est.), dose: 32.0 mg/kg/injection, schedule: Q07DX005 (ip), vehicle: saline with Tween-80): 49 % of control and 110 % of control
- T/C (endpoint: median tumor weight (est.), dose: 128.0 mg/kg/injection, schedule: Q07DX005 (ip), vehicle: saline with Tween-80): 42 % of control and 110 % of control

Structure (SMILES): O.O.[NH-]C1CCCCC1[NH-].[Pt+2] (stereo not drawn)
- T/C (endpoint: median tumor weight (est.), dose: 1.25 mg/kg/injection, schedule: Q07DX005 (ip), vehicle: dextrose): 74 % of control and 110 % of control
- T/C (endpoint: median tumor weight (est.), dose: 2.5 mg/kg/injection, schedule: Q07DX005 (ip), vehicle: dextrose): 48 % of control and 80 % of control
- T/C (endpoint: median tumor weight (est.), dose: 5.0 mg/kg/injection, schedule: Q07DX005 (ip), vehicle: dextrose): 55 % of control and 98 % of control
- T/C (endpoint: median tumor weight (est.), dose: 10.0 mg/kg/injection, schedule: Q07DX005 (ip), vehicle: dextrose): 27 % of control and 110 % of control

Structure (SMILES): Cc1c2oc3c(C)ccc(C(=O)NC4C(=O)NC(C(C)C)C(=O)N5CCCC5C(=O)N(C)CC(=O)N(C)C(C(C)C)C(=O)OC4C)c3nc-2c(C(=O)NC2C(=O)NC(C(C)C)C(=O)N3CCCC3C(=O)N(C)CC(=O)N(C)C(C(C)C)C(=O)OC2C)c(N)c1=O (stereo not drawn) (I: TVP[Sar][NMeV] / II: TVP[Sar][NMeV]; ester I:1-I:C, II:1-II:C; linker I:N-II:N via Actinocin(9to1); configuration not given here)
- T/C (endpoint: median tumor weight (est.), dose: 0.25 mg/kg/injection, schedule: Q07DX005 (ip), vehicle: saline): 24 % of control and 76 % of control

Structure (SMILES): [Cl][Mn][Cl]
- T/C (endpoint: median tumor weight (est.), dose: 8.0 mg/kg/injection, schedule: Q07DX005 (ip), vehicle: saline): 91 % of control, 103 % of control, 118 % of control
- T/C (endpoint: median tumor weight (est.), dose: 16.0 mg/kg/injection, schedule: Q07DX005 (ip), vehicle: saline): 38 % of control, 97 % of control, 222 % of control
- T/C (endpoint: median tumor weight (est.), dose: 32.0 mg/kg/injection, schedule: Q07DX005 (ip), vehicle: saline): 23 % of control, 44 % of control, 167 % of control

Structure (SMILES): CC(=O)OCc1cc(=O)n(C)c2c3c4c(cc12)c(C)cc(=O)n4CO3
- T/C [9]: 40 % of control and 66 % of control
- T/C (endpoint: median tumor weight (est.), dose: 50.0 mg/kg/injection, schedule: Q07DX005 (ip), vehicle: Klucel (hydroxypropylcellulose) (HPC)): 65 % of control and 105 % of control

Structure (SMILES): OCCN1CCN(CCCN2c3ccccc3Sc3ccc(C(F)(F)F)cc32)CC1
- T/C [7]: 43 % of control and 82 % of control

Structure (SMILES): Nc1n[nH]c(N)n1
- T/C (endpoint: median tumor weight (est.), dose: 400.0 mg/kg/injection, schedule: Q07DX005 (ip), vehicle: saline): 38 % of control and 120 % of control
- T/C (endpoint: median tumor weight (est.), dose: 800.0 mg/kg/injection, schedule: Q07DX005 (ip), vehicle: saline): 29 % of control and 86 % of control

Structure (SMILES): Cc1cc(C)c(-c2cc(O)c(C)cc2O)c(C)c1
- T/C (endpoint: median tumor weight (est.), dose: 100.0 mg/kg/injection, schedule: Q07DX005 (ip), vehicle: Klucel (hydroxypropylcellulose) (HPC)): 92 % of control and 158 % of control

Structure (SMILES): OCCOCC(F)(F)F
- T/C [6]: 60 % of control and 104 % of control
- T/C [2]: 27 % of control and 90 % of control

Structure (SMILES): CS(=O)(=O)OCCCNCCCOS(C)(=O)=O
- T/C (endpoint: median tumor weight (est.), dose: 9.3 mg/kg/injection, schedule: Q07DX005 (ip), vehicle: saline): 46 % of control, 66 % of control, 94 % of control
- T/C (endpoint: median tumor weight (est.), dose: 18.75 mg/kg/injection, schedule: Q07DX005 (ip), vehicle: saline): 24 % of control, 69 % of control, 95 % of control
- T/C (endpoint: median tumor weight (est.), dose: 37.5 mg/kg/injection, schedule: Q07DX005 (ip), vehicle: saline): 6 % of control, 62 % of control, 81 % of control
- T/C (endpoint: median tumor weight (est.), dose: 75.0 mg/kg/injection, schedule: Q07DX005 (ip), vehicle: saline): 13 % of control and 65 % of control

Structure (SMILES): C[C@]12CC[C@@H]3c4ccc(O)cc4CC[C@H]3[C@@H]1CC[C@@H]2O
- T/C [8]: 31 % of control and 84 % of control
- T/C (endpoint: median tumor weight (est.), dose: 400.0 mg/kg/injection, schedule: Q07DX005 (ip), vehicle: Klucel (hydroxypropylcellulose) (HPC)): 4 % of control, 52 % of control, 62 % of control
